Measurements: patent publication US10299477B2 (priority 2015, dated 2019)

Columns and labels:
Type in all cases: in vivo
Plasmopara viticola = assay: Test Example G: Downy mildew on vine; details: for Test G (control value class): 250 ppm spray; for Test G control value (downy mildew on vine): 250 ppm spray (2.5 ml/pot), preventive, control value class
Excerpt: [Test Example G] Downy Mildew on Vine
Seeds of a test plant (grape variety: Neomuscat) were planted followed by cultivating until three to four first leaves appeared. […] After the sprayed dilutions were dried, a zoosporangia suspension (1-2×10^4 zoosporangia/ml) of Plasmopara viticola was inoculated to the plants by spraying.

[1] = tested on: Blumeria graminis f sp. hordei; assay: Test Example D: Powdery mildew on barley; details: for Test D control value (powdery mildew on barley): preventive, control value class
Excerpt: [Test Example D] Powdery Mildew on Barley
After the sprayed dilutions were dried, conidia of Blumeria graminis f sp. hordei were inoculated to the plants by shaking off.

Puccinia recondita = assay: Test Example E: Brown rust on wheat; details: for Test E control value (brown rust on wheat): preventive, control value class
Excerpt: [Test Example E] Brown Rust on Wheat

Alternaia brassicicola = assay: Test Example C: Alternaria sooty spot on cabbage; details: for Test C (control value class): Alternaria sooty spot on cabbage; for Test C control value (Alternaria sooty spot on cabbage): preventive, control value class
Excerpt: [Test Example C] Alternaria Sooty Spot on Cabbage
Seeds of a test plant (cabbage variety: Shikidori) were planted followed by cultivating until the cotyledons extended.

Botrytis cinerea = assay: Test Example B: Gray mold on tomato; details: for Test B control value (gray mold on tomato): preventive, control value class
Excerpt: [Test Example B] Gray Mold on Tomato
Seeds of a test plant (tomato variety: Oogata Fukuju) were planted followed by cultivating until three to five first leaves (true leaves) appeared.

[2] = Downy mildew on vine, 2.5 ml/pot, evaluated 7-10 days after inoculation
[3] = Powdery mildew on barley, control value=100{1-(n/3)}
[4] = Brown rust on wheat, control value=100{1-(n/3)}
[5] = Gray mold on tomato, control value=100{1-(n/3)}

SMILES | Test G control value (downy mildew on vine) (Plasmopara viticola; 7-10 days after inoculation) | Test D control value (powdery mildew on barley) ([1]; 250 ppm spray) | Test E control value (brown rust on wheat) (Puccinia recondita; 250 ppm spray) | Test C control value (Alternaria sooty spot on cabbage) (Alternaia brassicicola; 250 ppm spray) | Test B control value (gray mold on tomato) (Botrytis cinerea; 250 ppm spray) | also measured
COc1cc(OC)c(Cl)c(-c2ccc(=O)n(/C=C/F)c2-c2c(F)cc(F)cc2F)c1 [Compound 379] |  |  |  |  |  | Test G (control value class) (Plasmopara viticola; downy mildew on vine, Plasmopara viticola, 7-10 days after inoculation): H (H shows more than 50% of control values); Test D (control value class) ([1]; powdery mildew on barley, 250 ppm spray): H (H shows more than 50% of control values); Test E (control value class) (Puccinia recondita; brown rust on wheat, Puccinia recondita, 250 ppm spray): H (H shows more than 50% of control values); Test C (control value class) (Alternaia brassicicola; 250 ppm spray): H (H shows more than 50% of control values); Test B (control value class) (Botrytis cinerea; gray mold on tomato, Botrytis cinerea, 250 ppm spray): H (H shows more than 50% of control values)
CCN1C(=O)CCC(c2cccc(C)c2)=C1c1c(F)cccc1F [Compound 207] | L (L shows 50% or less of control values) | H (H shows more than 50% of control values) | H (H shows more than 50% of control values) | H (H shows more than 50% of control values) | L (L shows 50% or less of control values) | 
CCn1c(-c2c(F)cc(F)cc2F)c(-c2cc(OC)cc(F)c2Cl)ccc1=O [Compound 615] |  |  |  |  |  | Test G (control value class, downy mildew on vine) (Plasmopara viticola; 250 ppm, sprayed 2.5 ml/pot before inoculation, evaluated 7-10 days after inoculation): L (L shows 50% or less of control values); Test D (control value class, powdery mildew on barley) ([1]; in vivo): H (H shows more than 50% of control values); Test E (control value class, brown rust on wheat) (Puccinia recondita; in vivo): H (H shows more than 50% of control values); Test C (control value class, Alternaria sooty spot on cabbage) (Alternaia brassicicola; in vivo): H (H shows more than 50% of control values); Test B (control value class, gray mold on tomato) (Botrytis cinerea; in vivo): H (H shows more than 50% of control values)
CCn1c(-c2c(F)cncc2F)c(-c2cc(OC)cc(OC)c2Cl)ccc1=O [Compound 224] | H (H shows more than 50% of control values) | H (H shows more than 50% of control values) | H (H shows more than 50% of control values) | H (H shows more than 50% of control values) | H (H shows more than 50% of control values) | 
CCN1C(=O)CCC(c2cc(OC)cc(OC)c2Cl)=C1c1c(F)cc(F)cc1F [Compound 342] | L (L shows 50% or less of control values) | H (H shows more than 50% of control values) | H (H shows more than 50% of control values) | H (H shows more than 50% of control values) | H (H shows more than 50% of control values) | 
Cn1c(-c2c(F)cc(F)cc2F)c(-c2cc(F)cc(F)c2)ccc1=O [Compound 800] |  |  |  |  |  | Test G (control value class) (Plasmopara viticola; [2]): H (H shows more than 50% of control values); Test D (control value class) [1, 3]: H (H shows more than 50% of control values); Test E (control value class) (Puccinia recondita; [4]): H (H shows more than 50% of control values); Test C (control value class) (Alternaia brassicicola; control value=100{1-(n/3)}): H (H shows more than 50% of control values); Test B (control value class) (Botrytis cinerea; [5]): H (H shows more than 50% of control values)
Cn1c(-c2c(F)cc(F)cc2F)c(-c2ccccc2)cc(Br)c1=O [Compound 780] |  |  |  |  |  | Test G (control value class) (Plasmopara viticola; [2]): L (L shows 50% or less of control values); Test D (control value class) [1, 3]: H (H shows more than 50% of control values); Test E (control value class) (Puccinia recondita; [4]): H (H shows more than 50% of control values); Test C (control value class) (Alternaia brassicicola; control value=100{1-(n/3)}): H (H shows more than 50% of control values); Test B (control value class) (Botrytis cinerea; [5]): H (H shows more than 50% of control values)
CN1C(=O)CCC(c2cccc(Cl)c2)=C1c1c(F)cccc1F [Compound 191] | L (L shows 50% or less of control values) | H (H shows more than 50% of control values) | H (H shows more than 50% of control values) | H (H shows more than 50% of control values) | L (L shows 50% or less of control values) | 
